The text below walks through data of PubChem BioAssay AID488969 (Vanderbilt High Throughput Screening Facility, 2010).

Each structure is given as a SMILES string. Over roughly 110,000 compounds, “z-score” has its median near -0.1; the highest 2% begin near 2. Some of the results follow.

This assay concerns the target Metabotropic glutamate receptor 8 (Rattus norvegicus) (UniProt P70579). The experiment in a line: rat mGluR8 modulators via GIRK flux, primary screen, cell-based, thallium flux, HTS (AID 488969). The settings on record: HEK293 rat mGluR8, GIRK (G protein-gated inwardly rectifying potassium channel) thallium flux, FluoZin2; at 10 µM; stronger effect = higher value; submaximal glutamate (EC20) added with thallium.
UniProt P70579, sequence (P70579 whole entry, looked up): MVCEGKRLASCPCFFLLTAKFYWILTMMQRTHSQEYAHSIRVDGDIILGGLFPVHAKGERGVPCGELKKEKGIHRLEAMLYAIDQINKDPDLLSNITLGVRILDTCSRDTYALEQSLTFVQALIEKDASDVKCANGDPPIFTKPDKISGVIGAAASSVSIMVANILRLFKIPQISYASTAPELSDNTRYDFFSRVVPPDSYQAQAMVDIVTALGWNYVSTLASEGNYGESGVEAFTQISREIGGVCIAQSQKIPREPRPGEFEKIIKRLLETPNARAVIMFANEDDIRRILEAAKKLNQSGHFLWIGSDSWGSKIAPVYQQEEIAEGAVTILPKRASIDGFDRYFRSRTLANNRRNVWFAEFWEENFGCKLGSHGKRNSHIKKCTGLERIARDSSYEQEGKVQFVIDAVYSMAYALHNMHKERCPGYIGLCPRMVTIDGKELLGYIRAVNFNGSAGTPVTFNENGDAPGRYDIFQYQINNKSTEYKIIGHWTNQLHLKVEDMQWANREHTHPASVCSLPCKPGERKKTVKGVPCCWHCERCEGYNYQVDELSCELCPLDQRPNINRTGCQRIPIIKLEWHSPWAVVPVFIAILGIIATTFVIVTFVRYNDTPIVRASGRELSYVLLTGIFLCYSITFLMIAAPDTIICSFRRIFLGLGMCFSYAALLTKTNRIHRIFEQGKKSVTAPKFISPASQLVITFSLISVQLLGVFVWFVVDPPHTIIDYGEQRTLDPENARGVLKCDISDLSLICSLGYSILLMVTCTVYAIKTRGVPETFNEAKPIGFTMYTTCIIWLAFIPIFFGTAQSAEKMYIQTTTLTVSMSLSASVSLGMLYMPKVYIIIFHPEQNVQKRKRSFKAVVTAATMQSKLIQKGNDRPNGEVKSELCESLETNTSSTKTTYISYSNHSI
`COc1cccc(NC(=O)CSc2nnc(-c3ccc(C)cc3)o2)c1` gave a z-score of 0.576. In the case of `N#Cc1nc(-c2ccco2)oc1N1CCCC1` it was 1.52; in that of `COc1ccccc1NC(=O)COc1ccc(/C=N/NC(=O)CSCc2ccc(Cl)cc2)cc1`, 0.067; in that of `O=C(Nc1nnc(CCN2CCOCC2)s1)c1ccccc1`, 0.358. Turning to `CSc1ccccc1OC1CCN(Cc2ccccc2)CC1`, the z-score worked out at 0.972. On to `O=C(Nc1ccc(Cl)cc1)C1CCN(C(=O)NC2CCCCC2)CC1`, for which the z-score is -0.0672. In the case of `Cc1cccnc1N(C(=O)Nc1ccccc1)C1=NCC(C)(C)S1` it was -0.183; in that of `OCCNCCOc1ccccc1-c1ccccc1`, -0.00757; in that of `Clc1ccc2[nH]c3c(N4CCC5(CC4)OCCO5)ncnc3c2c1`, -0.572. In the case of `CCOc1cc(C(=O)NCCOC)cc(OCC)c1OCC` it was 0.693. As for `CC(=O)NCCc1nc2ccccc2n1Cc1ccc(C)cc1`, the z-score amounted to 0.404. `CCOc1cc(S(=O)(=O)NC2CC2)c(OCC)cc1-n1cnnn1` registered a z-score of -0.29.

In turn, `Cc1ccc(S(=O)(=O)N(CC(=O)N2CCc3ccccc3C2)c2ccc(Cl)c(Cl)c2)cc1` had a z-score of -0.265. For `COc1ccc(N2CCN(C(=O)CSc3ccccc3N)CC2)cc1`, the z-score came out at 0.311.

Turning to `CN(C)c1ccc(/C=C(\Cl)c2nc3ccccc3s2)cc1`, the z-score is -0.171.

`COc1cccc2cc(-c3cn4ccc(C)cc4n3)c(=O)oc12`: the z-score is -0.32. `COc1ccc(NC(C)=O)c2nc(C)c(C)nc12` had a z-score of -0.473. `NC(=O)C1(N2CCCCC2)CCN(C(=O)CSc2nc3ccccc3s2)CC1` registered a z-score of 0.851. For `Cc1cc(Cl)cc(Br)c1OCCCCn1cncn1`, the z-score came out at 1.79.

For `COc1ccc(N(CC(=O)N/N=C/c2ccco2)S(=O)(=O)c2ccccc2)cc1`, the z-score is 0.146. Regarding `COc1ccc(NC(=O)c2ccc(CNS(=O)(=O)c3cccc(OC)c3)cc2)cc1`, the z-score is -0.344. `CC1CC(C)CN(CC(C)(C)NS(=O)(=O)c2ccccc2)C1` (stereo unspecified) showed a z-score of -0.0174. In turn, `COc1ccc(Nc2nnc(C)c3ccccc23)cc1C(N)=O` gave a z-score of -0.156. For `COCCCNC(=O)c1ccc(Cn2c(=O)c3ccccc3n(Cc3cc(C)ccc3C)c2=O)cc1`, the z-score is -0.321.

`CCOC(=O)CSC1=C(C#N)C(c2sccc2C)C(C(C)=O)=C(C)N1` (stereo unspecified) showed a z-score of -0.0469.

`Cc1ccc(CC(CC(=O)NCCc2ccc3c(c2)OCO3)C(=O)O)cc1` (stereo unspecified) showed a z-score of 0.0279. Compound `COc1ccccc1NC(=O)CSc1nnc(COc2ccc(Cl)cc2)n1Cc1ccco1` displayed a z-score of -0.311. In the case of `O=C(NCCCN1CCN(c2cccc(Cl)c2)CC1)C1(S(=O)(=O)c2ccc(Cl)cc2)CC1` it was 1.03. On to `CSc1ccc(-c2c(C#N)c(N)nc3c2CCCC3)cc1`, for which the z-score was determined as 0.483. For the compound `Cc1cccc(C)c1NC(=O)c1c(C)nn(-c2ccccc2)c1Cl`, the z-score is -0.207. Regarding `CCN(CC)c1nc(Nc2ccc(Cl)cc2)nc(OCC#N)n1`, the z-score was -0.326.
